# Laboratory results as given in the supplement of paper PMC11417369.
# The list shows a part of the results.
# Test system: PF3D7_0420300 AP2 domain 1 (GST-tagged)
# Test: gcPBM binding intensity (ln(normalized median fluorescence intensity)); higher = stronger DNA binding
# Summary of the method: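 GST-tagged P. falciparum DNA-binding domains, expressed in E. coli (about 25 μg on average), were applied for 1 h to an Agilent 4 × 180k array of primer-extended double-stranded 36-bp intergenic genomic probes plus negative controls. The binding buffer was 1× PBS with 1% milk, 0.2 mg/ml BSA, 0.5% salmon testes DNA and 0.03% Triton X-100. Bound protein was detected with Alexa488 anti-GST antibody and scanned at 488 nm. Binding intensity is the highest Masliner-normalised natural-log median intensity across replicate spots of either probe orientation.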
row,Sequence,gcPBM binding intensity (ln)
1,CACAACATATATATATATATATATATATATATGTGT [CACACA_negctrl_site28],9.06
2,TACTTTTTAGGAAAGTGTACAAGCATATAAGGAATA [XGTACX_site2834],9.2
3,TTAAAAAAATATTGAAGTACACACATTATAAACTTT [XGTACX_site3548],9.31
4,ATATAATAAAATTAATGTACATATATGTATTATATA [XGTACX_site3283],9.24
5,TTTCATATATATGAAACACACAAAGGAAAAAAAATT [CACACA_site4144],9.49
6,ACAAGTTTATTTGTTGCACACATATAAGTAGAGAAA [CACACA_site8994],9.3
7,AAAAAAAAAAAACACACACACATAGACCTCCAATAG [CACACA_site3562],9.95
8,AACATAATCTCATATACACACAAAAATATTGAAATA [CACACA_site7085],9.62
9,GCTCATATGACAACAACACACAAAAAAATAAAATGA [CACACA_site714],9.48
10,ATATAATAACAAAAGGTGCGCATTAAGACAAAAAAA,9.72
11,TTTTTCCCCCTTTTTTTGATTTTTATCTTAATTCTA [TGCATGCA_negctrl_site287],9.48
12,TATTATATTGTTCATTTACACTTTCATTTTAAAAAA [CACACA_negctrl_site260],9.15
13,TTTTTTAAAATAATAGGTACACATAAAAAAAAAAAA [XGTACX_site2517],9.1
14,AATGATGTTGTATTGTTTCGATATAACATCTAATTT [GTGCAC_negctrl_site309],9.1
15,TTTTTTCATTTTTTATTTTTTTATTTTTTACATATT [GTGCAC_negctrl_site137],9.53
16,AAGGATTATTTTAATCGTACATGTGTAAATAATATA [XGTACX_site6177],9.17
17,TTATTTATTTTCATATGTACTTATTTATAGAGGTTG [XGTACX_site5599],9.27
18,CATACATACATACATACACACATATATATATATATG [CACACA_site1995],9.67
19,TATATATATAGACACACACACATATAAATAAATAAA [CACACA_site444],10.1

row,Sequence,gcPBM binding intensity (ln)
1,AAAAAAAAATAATATACACACTCCAATATAAAAAAT [CACACA_site3958],9.75
2,TGTGTATTATAAACATGTACATAAAAATACGATATT [XGTACX_site3643],9.53
3,CGCACTAAAAAACACACACACACACCCATATATATA [CACACA_site4152],10.3
4,TTAGGATATTTATTTCGTACATATATTTTTAATTGT [XGTACX_site582],9.12
5,AATTTTTATATAATTTAACACACATTTCATATAAAA [CACACA_site9018],9.27
6,TACTTCATATAATTAGCACACAATAATTTCTCATTT [CACACA_site2872],9.42
7,TATAAATTATTTATCACACATAAAACAAAAATAAGA [CACACA_site5493],9.44
8,ATATATATTAAAAATAGTACATATAATAAAAATCAT [XGTACX_site4265],9.48
9,TACATATTCCTACAAATGTATAAATTATAAATATTA [XGTACX_negctrl_site30],8.9
10,AACGATATAGGTACTACACACATTATGTCATCCTAT [CACACA_site7205],9.73
11,ATATGAAATATATGTAGTACACATAATTAAAAGTAG [XGTACX_site6490],9.38
12,TGTATATGTTTAATTAGTACATATAAAGTAACAATA [XGTACX_site1207],9.24
13,AATAATATACCTCTTGTGCACATATTAAAAGTTCAT [GTGCAC_site9536],9.4
14,TTCGTCTTTTTTCTCACACACCCTTTTTATTAAAAG [CACACA_site7225],9.59
15,AGAATTAAAATAAAGGTGCATTTTTTTGTTTCATGT,9.31
16,AAAGAATACATATATTGTACATATATATATACCGTT [XGTACX_site6250],9.48
17,ATAATACAAAACACAAGTACATAAATTAAAAAGATG [XGTACX_site7839],9.73
18,TTCATTCATTTTATTACACACAAAAAAAAAAAAAAA [CACACA_site3680],9.07
19,AGTTATTTTATAGAATATGAATAATTTTACTTTTCA [XGTACX_negctrl_site403],9.06

row,Sequence,gcPBM binding intensity (ln)
1,AAAAAAAAAGGTACTACACACTATTCTCAATAGAAA [CACACA_site6193],9.46
2,AATTTCATTTTACTTATCTAATATTTATAATCTTTT [CACACA_negctrl_site636],9.27
3,AAGGTGGTTATTAAATGTACACAGACATATACAAAA [XGTACX_site3007],9.33
4,AGGTAGAAAAAAGACACACACATTATATATATATAT [CACACA_site4367],9.8
5,ATATGCTACATTATATGTACACACATATACATATAT [XGTACX_site1656],9.51
6,TAATATAAAGAAATATCAATAATTTGGGCAAATGCC [GTGCAC_negctrl_site621],9.1
7,TTTTATGCATGTGAAGTGCAAAATAAAAAATAAAAT [GTGCAC_site9612],9.14
8,TATATTTGTTAATTTTGTACGTATGGATATACATAA [XGTACX_site5100],9.19
9,TATAAATATAGAATTACACACAATGTTCTATAAATA [CACACA_site7508],9.36
10,GATATGTTTTCCTAGGTTCATGATGATAGGTAGTTT [XGTACX_negctrl_site217],9.57
11,TTTGTGGTTACATGTGCACACACTTATTTCGTTCTT [CACACA_site1435],9.8
12,AATATATAAATTGACACACACATATATACATATATA [CACACA_site1213],9.79
13,TGTTAATATATCATTATGTTATAGGTTCAGCTGGGA [CACACA_negctrl_site401],9.05
14,TATTTACATTTATGTGCACACATTCCATTTGAAAGT [CACACA_site1954],9.38
15,CGGACATACATAGGAACATGCAAAATTTTTTATTTT [TGCATGCA_site575],9.18
16,AATAGAAAAAAAAAATGTACACATATAAAAGCATAT [XGTACX_site6306],9.77
17,TATTTTCTTTTTCTTGTACACACATAATATGGATGA [CACACA_site8168],9.53
18,ATACATATATACATATGTACATATATATATATATAT [XGTACX_site8206],9.3
